Hit rate of the full screen: of about 310,000 compounds, about 14,000 (4.5%) showed an effect of 50% or more. The effect is printed as a negative number. The list shows a part of the results.
Each molecule was assayed against human ether-à-go-go-related gene (hERG) potassium channel (human, UniProt Q12809) (assay: primary screen, population patch clamp on CHO cells stably expressing hERG).
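Also: peak tail current of the secondary pulse compared with the same well before compound.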

human ether-à-go-go-related gene (hERG) potassium channel, sequence (Q12809 whole entry, looked up): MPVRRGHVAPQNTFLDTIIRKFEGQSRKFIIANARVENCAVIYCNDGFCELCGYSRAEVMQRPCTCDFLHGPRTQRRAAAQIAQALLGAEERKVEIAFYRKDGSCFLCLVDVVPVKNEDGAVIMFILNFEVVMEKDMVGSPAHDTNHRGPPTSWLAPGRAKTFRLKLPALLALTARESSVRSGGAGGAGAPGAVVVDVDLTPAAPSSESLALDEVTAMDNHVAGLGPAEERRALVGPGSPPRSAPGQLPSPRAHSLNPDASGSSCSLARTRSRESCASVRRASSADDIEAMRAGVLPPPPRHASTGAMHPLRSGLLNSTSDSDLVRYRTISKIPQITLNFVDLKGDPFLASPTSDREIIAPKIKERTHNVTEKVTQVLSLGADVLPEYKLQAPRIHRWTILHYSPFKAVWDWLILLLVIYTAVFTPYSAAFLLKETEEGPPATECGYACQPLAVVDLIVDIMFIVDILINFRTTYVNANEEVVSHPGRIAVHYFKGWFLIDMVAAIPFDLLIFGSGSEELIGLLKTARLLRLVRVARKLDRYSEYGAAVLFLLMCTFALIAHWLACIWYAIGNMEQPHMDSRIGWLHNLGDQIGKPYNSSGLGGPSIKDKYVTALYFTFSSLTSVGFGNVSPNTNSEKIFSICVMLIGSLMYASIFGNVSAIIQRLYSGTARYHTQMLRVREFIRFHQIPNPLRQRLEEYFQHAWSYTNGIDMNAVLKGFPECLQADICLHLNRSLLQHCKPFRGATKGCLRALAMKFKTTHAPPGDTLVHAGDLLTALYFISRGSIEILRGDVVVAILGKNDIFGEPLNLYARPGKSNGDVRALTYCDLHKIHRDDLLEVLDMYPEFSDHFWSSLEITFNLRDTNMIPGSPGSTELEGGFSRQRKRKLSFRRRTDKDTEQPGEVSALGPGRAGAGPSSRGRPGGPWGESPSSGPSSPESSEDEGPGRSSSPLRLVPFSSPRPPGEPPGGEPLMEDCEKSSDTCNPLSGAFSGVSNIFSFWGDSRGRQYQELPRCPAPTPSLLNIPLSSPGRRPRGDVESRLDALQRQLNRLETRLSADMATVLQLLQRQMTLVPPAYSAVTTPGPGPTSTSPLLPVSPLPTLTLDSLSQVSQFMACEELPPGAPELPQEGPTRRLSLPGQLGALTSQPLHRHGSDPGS

SMILES	hERG current change (%, negative = inhibition) at 10uM [%]
Cc1cccc(OCC(O)Cn2c(NCc3cccnc3)nc3c2c(=O)[nH]c(=O)n3C)c1 (stereo not shown)	-9.46
COc1ccc(-c2[nH]c(-c3ccc4c(c3)OCO4)nc2-c2ccccc2)cc1	1.88
COc1ccc(S(=O)(=O)NCc2ccccn2)cc1NC(=O)c1ccccc1C	-1.41
CSc1ccccc1C(=O)Nc1nccs1	-4.93
CCOC(=O)c1c(C)n(CCO)c2ccc(O)cc12	5.86
COc1ccc(NC(=S)N(CCCN2CCOCC2)Cc2ccccn2)cc1	-14.4
O=C(N/C(=C/c1cccc([N+](=O)[O-])c1)C(=O)N1CCCCC1)c1cccs1	-7.23
O=C(c1cc2c(s1)CCCCCC2)N1CCC2(CC1)OCCO2	-5.1
COCCCN1C(=O)C(=O)/C(=C(/O)c2ccc(S(=O)(=O)N3CCOCC3)cc2)C1c1cccc(Cl)c1 (stereo not shown)	1.25
Cc1nc(S(=O)(=O)Nc2ccccc2C(=O)NCC2CC2)cn1C	12.4
COc1ccccc1CNc1nc(C)c(C(C)=O)s1	8.49
CS(=O)(=O)N1CCN(C(=O)c2ccccc2F)CC1	-0.0275
Cc1ccc(S(=O)(=O)N2CCCC(C(=O)N(Cc3cccs3)C3CC3)C2)cc1 (stereo not shown)	-67.7
COc1ccccc1N1CCN(C(=O)CCSCc2ccccc2F)CC1	4.41
CN1CCN(c2ccc(NC(=O)c3ccc(Cl)cc3)cn2)CC1	-53.1
O=C(NNc1c(Cl)cncc1Cl)c1cccs1	11.5
COc1cccc(N2C(=O)C(c3ccccc3)=C(c3nc4ccccc4s3)C2NC(C)=O)c1 (stereo not shown)	-3.14
CCCOc1ccc(-c2c(C(=O)N/N=C/c3ccc(OC)cc3)nnn2-c2nonc2N)cc1	-1.04
CC(=O)c1sc(NC(=O)CN2C(=O)C3CC=CCC3C2=O)nc1-c1ccccc1 (stereo not shown)	-23.7
CCC(C)Sc1nc2ccccc2n1CC(=O)O (stereo not shown)	8.33
COc1cc2c(cc1OC)C(c1ccccc1)NCC2 (stereo not shown)	18.8
Cc1cccc(NC(=O)c2ccc([N+](=O)[O-])o2)n1	-8.5
Clc1ccc(C(Cn2ccnc2)OCc2c(Cl)cccc2Cl)c(Cl)c1 (stereo not shown)	-32
Cc1ccc(OCC(=O)N2CCN(C(=O)c3cccs3)CC2)cc1	-34.8
O=C1c2ccccc2C(O)(c2ncc[nH]2)N1CCc1ccccc1 (stereo not shown)	-13.8
